Results on 28 molecules are retold here after the antibiotic and cytotoxicity screens of Wong et al. (2023).

One test relates to HSkMC. The test is described as follows: cytotoxicity call (relative viability < 0.9). To be noted: 10 µM.
In a further test the test system is HepG2. The test is described as follows: cytotoxicity call (relative viability < 0.9). To be noted: 10 µM.
In a further test the test system is S. aureus RN4220. The test is described as follows: growth inhibition call (relative growth <= 0.2). Conditions: 50 µM.

This is one part of the list.

Turning to `Cc1cc(=O)[nH]c(=S)[nH]1`, the cytotoxicity call with HSkMC and with HepG2 was “inactive” in each case. Also, the growth inhibition call with S. aureus RN4220 was “inactive”.
For the molecule `Cc1noc(C)c1S(=O)(=O)Nc1ccc2c(c1)CC(=O)N([C@H](C)CO)C[C@@H](C)[C@H](CN(C)Cc1ccc3c(c1)OCO3)O2`, the cytotoxicity call in the test with HSkMC and in the test with HepG2 was “inactive” throughout. Moreover, in the test on S. aureus RN4220, the growth inhibition call was “inactive”.
Regarding `C[C@@H]1CN([C@H](C)CO)C(=O)c2cc(NC(=O)Cc3ccccc3)ccc2O[C@@H](C)CCCCO[C@H]1CN(C)C(=O)c1ccccc1`, the cytotoxicity call in the test with HSkMC and in the test on HepG2 was “inactive” in each case. Also, the growth inhibition call with S. aureus RN4220 is “inactive”.
On to `Cc1noc(C)c1NC(=O)Nc1ccc2c(c1)C(=O)N([C@@H](C)CO)C[C@@H](C)[C@@H](CN(C)Cc1ccncc1)OCCCC[C@@H](C)O2`, for which the cytotoxicity call in the test on HSkMC and in the test on HepG2 was “inactive” throughout. For the same molecule, the growth inhibition call in the test with S. aureus RN4220 is “inactive”.
Consider `Cc1noc(C)c1NC(=O)N(C)C[C@H]1Oc2ccc(NC(=O)NC(C)C)cc2CC(=O)N([C@@H](C)CO)C[C@@H]1C`, for which the cytotoxicity call in the test on HSkMC and in the test on HepG2 was “inactive” in each case. In addition, in the test with S. aureus RN4220, the growth inhibition call was “inactive”.
On to `Cc1noc(C)c1NC(=O)Nc1ccc2c(c1)C(=O)N([C@@H](C)CO)C[C@H](C)[C@@H](CN(C)S(=O)(=O)c1ccccc1)OCCCC[C@H](C)O2`, for which the cytotoxicity call in the test with HSkMC and in the test with HepG2 was “inactive” each time. For the same molecule, the growth inhibition call in the test with S. aureus RN4220 was “inactive”.
Take `N#CCN(CC#N)C(=O)c1ccco1`: the cytotoxicity call in the test with HSkMC and in the test on HepG2 was “inactive” throughout. Besides, the growth inhibition call in the test on S. aureus RN4220 is “inactive”.
For `CCS(=O)(=O)N1C[C@]2(CCN(CC2)C(=O)Cc2ccccc2)c2c(n(c3cc(ccc23)OC)C)[C@H]1CO`, the cytotoxicity call in the test with HSkMC and in the test with HepG2 was “inactive” in each case. In the test with S. aureus RN4220, the growth inhibition call was “inactive”.
For `C[C@H]1CN([C@@H](C)CO)C(=O)Cc2cc(NS(=O)(=O)c3cn(C)cn3)ccc2O[C@H]1CN(C)S(=O)(=O)c1cccs1`, the cytotoxicity call with HSkMC and in the test with HepG2 was “inactive” throughout. Besides, in the test with S. aureus RN4220, the growth inhibition call was “inactive”.
As to `C[C@H](CO)N1C[C@H](C)[C@@H](CN(C)C(=O)Nc2ccc3c(c2)OCO3)Oc2ncc(C#CC3(O)CCCC3)cc2C1=O`, the cytotoxicity call with HSkMC and in the test on HepG2 was “inactive” throughout. Further, the growth inhibition call with S. aureus RN4220 is “inactive”.
Regarding `CC(CN(C)C)CN1c2ccccc2CCc2ccccc21.O=C(O)C=CC(=O)O` (centres undefined), the cytotoxicity call with HSkMC is “inactive”. For the same molecule, the cytotoxicity call with HepG2 is “active”. Further, the growth inhibition call in the test on S. aureus RN4220 is “inactive”.
As to `CC(C)NC(=O)Nc1ccc2c(c1)C(=O)N([C@@H](C)CO)C[C@@H](C)[C@@H](CN(C)C(=O)Nc1ccc(C(F)(F)F)cc1)OCCCC[C@H](C)O2`, the cytotoxicity call in the test on HSkMC and in the test with HepG2 was “inactive” throughout. Moreover, the growth inhibition call in the test with S. aureus RN4220 is “inactive”.
Turning to `Cn1cnc(CCNC(=O)C[C@@H]2CC[C@@H]3[C@H](COC[C@@H](O)CN3C(=O)Nc3ccc(C(F)(F)F)cc3)O2)c1`, the cytotoxicity call in the test with HSkMC and in the test on HepG2 was “inactive” throughout. The growth inhibition call with S. aureus RN4220 is “inactive”.
As to `COCC(=O)N(C)C[C@H]1Oc2cc(C#CCN(C)C)ccc2S(=O)(=O)N([C@@H](C)CO)C[C@H]1C`, the cytotoxicity call in the test on HSkMC and in the test with HepG2 was “inactive” each time. For the same molecule, in the test on S. aureus RN4220, the growth inhibition call is “inactive”.
For `C[C@@H]1CN([C@@H](C)CO)C(=O)CCCn2nncc2CO[C@@H]1CN(C)S(C)(=O)=O`, the cytotoxicity call in the test on HSkMC and with HepG2 was “inactive” in each case. Further, the growth inhibition call with S. aureus RN4220 is “inactive”.
Consider `N#Cc1ccc(-c2cccs2)nc1`, for which the cytotoxicity call in the test with HSkMC and in the test with HepG2 was “inactive” in each case. Moreover, the growth inhibition call in the test on S. aureus RN4220 is “inactive”.
As for `COc1ccc(S(=O)(=O)Nc2ccc3c(c2)C(=O)N([C@H](C)CO)C[C@@H](C)[C@H](CN(C)C(=O)Nc2ccc(F)cc2)OCCCC[C@@H](C)O3)cc1`, the cytotoxicity call with HSkMC and in the test with HepG2 was “inactive” each time. The growth inhibition call in the test with S. aureus RN4220 was “inactive”.
As to `C[C@H]1CCCCO[C@H](CN(C)C(=O)c2ccccc2)[C@@H](C)CN([C@@H](C)CO)C(=O)c2cc(NC(=O)c3ccccc3)ccc2O1`, the cytotoxicity call in the test with HSkMC and with HepG2 was “inactive” in each case. The growth inhibition call in the test with S. aureus RN4220 is “inactive”.
As for `COc1ccc(NC(=O)N2CCCCN3[C@H](COCCN(C)C)[C@H](c4ccc(C#Cc5ccccc5)cc4)[C@@H]3C2)cc1`, the cytotoxicity call with HSkMC and in the test on HepG2 was “active” each time. In the test with S. aureus RN4220, the growth inhibition call was “active”.
Turning to `C[C@@H]1CN([C@@H](C)CO)C(=O)Cc2cc(NC(=O)Nc3ccc4c(c3)OCO4)ccc2O[C@H]1CN(C)Cc1ccc(C(F)(F)F)cc1`, the cytotoxicity call in the test on HSkMC and with HepG2 was “inactive” in each case. The growth inhibition call in the test with S. aureus RN4220 is “inactive”.
As to `COc1ccc(OC)c(S(=O)(=O)NCCO)c1`, the cytotoxicity call with HSkMC and with HepG2 was “inactive” throughout. The growth inhibition call with S. aureus RN4220 was “inactive”.
On to `COc1cccc(NC(=O)N(C)C[C@@H]2Oc3ncc(C#Cc4cccnc4)cc3C(=O)N([C@@H](C)CO)C[C@@H]2C)c1`, for which the cytotoxicity call in the test on HSkMC and in the test on HepG2 was “inactive” throughout. Moreover, the growth inhibition call in the test with S. aureus RN4220 is “inactive”.
Regarding `CC(C)NC(=O)Nc1ccc2c(c1)CC(=O)N([C@@H](C)CO)C[C@H](C)[C@@H](CN(C)Cc1ccc(Oc3ccccc3)cc1)O2`, the cytotoxicity call with HSkMC and in the test on HepG2 was “inactive” in each case. Also, the growth inhibition call with S. aureus RN4220 was “inactive”.
For the molecule `CN(C)CCCN1c2ccccc2CCc2ccccc21.Cl`, the cytotoxicity call with HSkMC was “inactive”. The cytotoxicity call with HepG2 was “active”. Besides, the growth inhibition call in the test with S. aureus RN4220 is “inactive”.
Consider `C[C@H]1CN([C@@H](C)CO)C(=O)c2cccc(NC(=O)CCCCCC(=O)Nc3ccccc3N)c2O[C@H]1CN(C)C(=O)Nc1ccc(C(F)(F)F)cc1`, for which the cytotoxicity call with HSkMC and with HepG2 was “inactive” in each case. In addition, the growth inhibition call in the test on S. aureus RN4220 was “inactive”.
Take `C[C@H](CO)N1C[C@H](C)[C@H](CN(C)S(=O)(=O)c2cccs2)OCCCC[C@H](C)Oc2ccc(NC(=O)c3ccccc3)cc2C1=O`: the cytotoxicity call with HSkMC and with HepG2 was “inactive” each time. Moreover, the growth inhibition call with S. aureus RN4220 is “inactive”.
Turning to `NC(=O)c1cc2ccccc2o/c1=N\O`, the cytotoxicity call in the test on HSkMC and in the test with HepG2 was “inactive” in each case. Also, the growth inhibition call in the test on S. aureus RN4220 was “inactive”.
`C[C@@H]1CCCCO[C@@H](CN(C)Cc2ccc(Cl)c(Cl)c2)[C@H](C)CN([C@@H](C)CO)C(=O)c2cc(NS(=O)(=O)c3ccccc3)ccc2O1`: the cytotoxicity call in the test on HSkMC (human skeletal muscle cells) and in the test with HepG2 was “active” each time. The growth inhibition call in the test on S. aureus RN4220 is “inactive”.
